Reference: paper PMC4336329 (PLoS ONE, 2015)
Screen size: about 310,000 compounds; about 2,200 (0.71%) showed an effect of 50% or more. Effects have a minus sign here. Some of the results follow.

target: human ether-à-go-go-related gene (hERG) potassium channel (human, UniProt Q12809); test: primary screen, population patch clamp on CHO cells stably expressing hERG
Sequence (Q12809 whole entry, looked up): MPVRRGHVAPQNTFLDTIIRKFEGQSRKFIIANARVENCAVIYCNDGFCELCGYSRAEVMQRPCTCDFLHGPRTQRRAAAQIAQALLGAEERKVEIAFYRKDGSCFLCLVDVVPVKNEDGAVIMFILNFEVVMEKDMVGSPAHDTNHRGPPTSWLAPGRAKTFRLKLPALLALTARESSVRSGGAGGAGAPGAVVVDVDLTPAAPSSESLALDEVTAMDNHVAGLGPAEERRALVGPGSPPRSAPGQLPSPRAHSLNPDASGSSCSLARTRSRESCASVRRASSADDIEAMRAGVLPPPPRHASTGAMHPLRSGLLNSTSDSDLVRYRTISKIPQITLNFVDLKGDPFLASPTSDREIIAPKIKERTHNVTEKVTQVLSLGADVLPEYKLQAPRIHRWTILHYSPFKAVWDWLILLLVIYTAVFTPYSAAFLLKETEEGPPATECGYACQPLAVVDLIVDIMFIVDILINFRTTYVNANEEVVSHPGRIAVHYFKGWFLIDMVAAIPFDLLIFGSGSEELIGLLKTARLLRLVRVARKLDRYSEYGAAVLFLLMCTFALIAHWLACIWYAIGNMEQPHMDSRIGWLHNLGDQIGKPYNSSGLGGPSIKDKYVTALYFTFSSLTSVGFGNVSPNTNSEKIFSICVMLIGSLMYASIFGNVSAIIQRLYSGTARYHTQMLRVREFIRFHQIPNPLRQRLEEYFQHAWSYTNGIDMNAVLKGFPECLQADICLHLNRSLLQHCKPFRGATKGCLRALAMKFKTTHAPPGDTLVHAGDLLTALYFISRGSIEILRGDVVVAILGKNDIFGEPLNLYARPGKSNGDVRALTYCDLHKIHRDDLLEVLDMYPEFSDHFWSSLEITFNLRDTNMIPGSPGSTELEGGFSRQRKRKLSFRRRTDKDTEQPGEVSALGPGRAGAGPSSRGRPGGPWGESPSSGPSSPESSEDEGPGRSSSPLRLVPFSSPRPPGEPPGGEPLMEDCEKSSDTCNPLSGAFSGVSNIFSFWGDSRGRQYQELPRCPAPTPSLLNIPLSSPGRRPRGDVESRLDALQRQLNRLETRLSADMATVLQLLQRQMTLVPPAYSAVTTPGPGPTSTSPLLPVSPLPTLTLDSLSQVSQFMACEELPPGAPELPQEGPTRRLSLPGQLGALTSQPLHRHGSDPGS

| Compound | hERG current change (%, negative = inhibition) at 1uM [%] |
| --- | --- |
| O=C(Nc1cc(S(=O)(=O)N2CCCCC2)ccc1N1CCCCC1)C1CC1 | -9.12 |
| Cl.NC(CC(=O)O)c1ccc(Br)cc1 (stereo not drawn) | 10.7 |
| Cc1ccc(SCC(=O)Nc2cccnc2)cc1 | 12.7 |
| CC(=O)Nc1ccc(C(=O)OCC(=O)Nc2ccccc2Sc2ccccc2)cc1 | 13.6 |
| S=C(NCCc1ccccn1)Nc1ccc(Cl)cc1Cl | 10.3 |
| Cc1cc(NC(=O)C(Cl)c2ccccc2)no1 (stereo not drawn) | 12.3 |
| CCOc1ccc(Nc2nc3c(c(=O)[nH]2)CCCC3)cc1 | 8.9 |
| CCN(Cc1ccccc1)S(=O)(=O)c1cc(C(=O)NC(C)C2CC3CCC2C3)ccc1OC (stereo not drawn) | 7.71 |
| Cl.O=C(CN1CCCCC1)N1c2ccccc2Sc2ccc(C(F)(F)F)cc21 | 1.3 |
| Oc1ccccc1C1=Nc2ncnn2C(c2ccccc2)C1 (stereo not drawn) | 5.87 |
| CC(C)O.CCc1ccc(-n2c(O)c(/C=N/N3CCCCC3c3cccnc3)c(=O)[nH]c2=O)cc1 (stereo not drawn) | 11.8 |
| c1ccc(Cn2nnc3ccccc32)cc1 | 10 |
| O=C(CCS(=O)(=O)c1ccc(Br)cc1)N1CCN(c2ccc(Cl)cc2)CC1 | -9.99 |
| COc1cc(NS(=O)(=O)c2ccc(C)cc2)c2ncccc2c1 | -2.95 |
| CC(CNC(=O)Cn1ccc(N)nc1=O)c1ccccc1 (stereo not drawn) | 8.89 |
| COc1ccc(C(=O)C2CCCN(Cc3ccon3)C2)c(OC)c1 (stereo not drawn) | -17.2 |
| CC(OC(=O)c1ccc(NS(=O)(=O)c2ccc3[nH]c(=O)[nH]c3c2)cc1)C(N)=O (stereo not drawn) | 17.1 |
| CCOc1ccc(NC(=O)CN2CCN(CC(=O)Nc3ccc(OC)cc3OC)CC2)cc1 | -58.2 |
| Cc1cc2[nH]c(=O)c3ccccc3n2n1 | 17.6 |
| Cc1nnc2ccc(N3CCC4(CC3)OCCO4)nn12 | 5.97 |
| CN(Cc1ccccc1)Cc1c(O)ccc2ccccc12 | 9.42 |
| COc1ccc(-c2cc(O)cc(O)c2)cc1 | 0.626 |
| NS(=O)(=O)c1ccc(NC(=O)CSc2nc3ccccc3nc2N2CCOCC2)cc1 | 13.9 |

| Compound | hERG current change (%, negative = inhibition) at 1uM [%] |
| --- | --- |
| COc1ccc(CCn2c(C3CCCCC3)nc3c(c(=O)c4ccccc4n3C)c2=O)cc1 | 7.34 |
| CN1CCN(c2ccc(CNS(=O)(=O)c3ccccc3)cc2)CC1 | 10.6 |
| CCOC(=O)COn1c(=O)c(=O)n(O)c2ccccc21 | 10.4 |
| Cl.c1ccc(CC2CCCNC2)cc1 (stereo not drawn) | 4.85 |
| O=C(COc1ccc(C(=S)N2CCOCC2)cc1)Nc1ccccc1C(F)(F)F | 12.7 |
| CCCCn1c(SCc2cccc([N+](=O)[O-])c2)nc2ccsc2c1=O | 13.8 |
| COc1ccc(C2CC(c3cccs3)=NN2C(=O)CSc2nnc(N)s2)cc1OC (stereo not drawn) | 4.1 |
| O=c1ccnc(SCCc2ccc([N+](=O)[O-])cc2)[nH]1 | 1.46 |
| CCCn1c(SCC(=O)Nc2cc(C(=O)O)ccc2C)nc2sc3c(c2c1=O)CCC3 | 11.6 |
| COc1ccc(CCN=C2SCC(=O)N2C)cc1OC | 8.91 |
| Cc1cccc(NC(=O)CN(C)S(=O)(=O)c2cccs2)c1 | 11.8 |
| CCOC(=O)c1nn(-c2sc(C(=O)OC)c(C)c2C(=O)OC)cc1O | 9.99 |
| NC(=O)c1ccccc1OCC(=O)Nc1cccnc1Cl | 5.88 |
| CCOC(=O)c1c(N)sc2c1CCCC2=O | 16.9 |
| O=C(CCC1CCN(Cc2ccc(Cl)cc2)CC1)NC1CC1 | -45.9 |
| C=CCSc1nnc(NC(=O)COc2ccccc2)s1 | 2.2 |
| Cc1ccc[n+](C2C(c3ccc([N+](=O)[O-])cc3)C(C#N)=C([S-])NC2(O)C2CC2)c1 (stereo not drawn) | 10.3 |
| Cc1cc(-c2nnc(-c3cccc(C(F)(F)F)c3)o2)no1 | 12.1 |
| CC1CCC2(CC1)NC(=O)N(CC(=O)N1CCN(C(=O)c3ccco3)CC1)C2=O (stereo not drawn) | 1.86 |
| CCOc1cc2c(cc1OCC)C(C(=O)O)C(c1cc(Br)c(O)c(OC)c1)N(C)C2=O (stereo not drawn) | 8.8 |
| CN(Cc1ccccc1)C(=O)c1ccc(COc2ccccc2)cc1 | 13 |
| COc1ccccc1N1CCN(CC(O)c2c(C)[nH]c3ccccc23)CC1 (stereo not drawn) | -19 |
| CC(N)Cc1c[nH]c2cc3c(cc12)OCCO3.Cl (stereo not drawn) | 7.44 |

| Compound | hERG current change (%, negative = inhibition) at 1uM [%] |
| --- | --- |
| Cc1cc(=O)[nH]c(SCC(=O)Nc2cc(S(=O)(=O)N3CCCC3)ccc2Cl)n1 | 10.9 |
| O=S(=O)(N1CCCCCC1)N1CCN(S(=O)(=O)N2CCOCC2)CC1 | 9.27 |
| COC(=O)CC1C(=O)NCCN1C(=S)NC(=O)C(c1ccccc1)c1ccccc1 (stereo not drawn) | 9.91 |
| CCn1c(CC(=O)Nc2ccccc2OC)nnc1SCC(=O)Nc1ccccc1F | 6.57 |
| Cn1cnnc1SCC(=O)Nc1ccccc1Sc1ccccc1 | 0.309 |
| O=C(NCCN1CCOCC1)/C(=C/c1ccc(Cl)cc1)NC(=O)c1ccccc1 | -83.1 |
| CCn1ncc(/C=N\NC(=O)COc2ccccc2)c1C | 6.41 |
| CCCCCCn1c(N2CCC(C(N)=O)CC2)nc2c1c(=O)[nH]c(=O)n2C | 6.28 |
| Cc1cccc(N2C(=O)CC(NNc3nc4ccccc4s3)C2=O)c1 (stereo not drawn) | 12.7 |
| CC(C)Cc1nnc(NC(=O)C2CC(=O)N(Cc3ccccc3)C2)s1 (stereo not drawn) | 7.39 |
| CC1(C)Cc2ccccc2-c2nnc(SCC(=O)Nc3nc4ccccc4s3)n21 | -6.96 |
| CCOC(=O)N1CCC(NS(=O)(=O)c2ccc(C)cc2)CC1 | 11.4 |
| CC(=O)Nc1ccccc1Nc1nc(NCCO)nc(N2CCCC2)n1 | 6.85 |
| CCCCCCNc1nc(NCc2ccco2)nc(OCC)n1 | 11.9 |
| COc1ccc(C)cc1NC(=O)CN1C(=O)COc2ccc(S(=O)(=O)N3CCCCCC3)cc21 | 13.4 |
| Oc1ccc2cc(Br)ccc2c1CN1CCCC1 | 3.76 |
| CCOc1ccc(S(=O)(=O)NCCC(=O)NCCCSc2ccccc2)cc1 | 3.23 |
| CC(OC(=O)c1nc(-c2ccccc2)n(-c2ccccc2)n1)C(=O)Nc1cc(Cl)cc(Cl)c1 (stereo not drawn) | 4.36 |
| Fc1ccc(-c2nnc3ccc(N4CCc5ccccc5C4)nn23)cc1 | 2.66 |
| O=[N+]([O-])c1cccc2ccc(/C=C/c3cccc(Br)c3)nc12 | 21 |
| O=C1N(CN2CCOCC2)c2ccccc2C1(O)c1c[nH]c2ccccc12 (stereo not drawn) | 16.7 |
| O=C1Cc2cc(NS(=O)(=O)c3ccc(F)cc3)cc3c2N1CCC3 | 5.85 |
| Br.Cc1csc(=Nc2ccccc2)n1CCO | 2.42 |

| Compound | hERG current change (%, negative = inhibition) at 1uM [%] |
| --- | --- |
| COC(=O)c1ccc(NC(=O)C23CC4CC(C2)CC(n2cncn2)(C4)C3)cc1 | -13 |
| Cc1cccc(/N=C/c2c(O)ccc3oc4c(c23)CCCC4)n1 | 1.89 |
| COc1cccc(CC(=O)OCC(=O)NC(C)c2ccc(F)cc2)c1 (stereo not drawn) | 10.4 |
| N/C(CN1CCSCC1)=N\OCc1c(F)cccc1Cl | 15.2 |
| COc1ccc([C@H]2CC(=O)C=C(c3ccc(C(F)(F)F)c(C(F)(F)F)c3)C2)cc1OC | 13.4 |
| Cc1ccc(C(=O)COc2ncnc3cc(Cl)ccc23)cc1 | 0.0315 |
| O=C(O)CN1C(=O)/C(=C\c2cc(Br)ccc2OCc2ccc(F)cc2)SC1=S | 5.18 |
| NC(=O)c1c(NC(=O)c2ccc(F)cc2Cl)sc2c1CCC2 | 10.8 |
| CCn1cc(Br)c(C(=O)Nc2ccc(C(=O)OC(C)C)cc2)n1 | 12.1 |
| NC(=NCCc1c[nH]c2ccccc12)NS(=O)(=O)c1ccc(F)cc1 | 13.8 |
| CCN(CC)S(=O)(=O)c1ccc(C)c(NC(=O)COC(=O)c2ccc(C)c(S(=O)(=O)N3CCOCC3)c2)c1 | -3.92 |
| Cn1c(=S)n(C)c2ccccc21 | 12.5 |
| CCc1nnc(NC(=O)c2nc(S(=O)(=O)Cc3ccccc3)ncc2Cl)s1 | 5.43 |
| COCCCNC(=O)C1CCC(=O)N(c2ccc3c(c2)OCO3)C1c1ccc(OC)cc1 (stereo not drawn) | 12.8 |
| O=C(NC1CC1)C1CCN(S(=O)(=O)c2cc(Cl)ccc2Cl)CC1 | 16.1 |
| Cc1cc(C)c2c(N)c(C(=O)c3cccc(Cl)c3)sc2n1 | 3.69 |
| CC(=O)N[C@H]1[C@H](OCc2ccccc2F)O[C@H](COC(C)=O)[C@@H](OC(C)=O)[C@@H]1OC(C)=O | 13.8 |
| Cn1ccnc1C(OC(=O)c1ccccc1)C(F)(F)F (stereo not drawn) | 19.2 |
| Cc1cccc(N=C2NC(=O)/C(=C/c3cccn3C)S2)c1 | 15.3 |
| COC(=O)C(Cc1ccccc1)NC(=O)CCc1c[nH]c2ccccc12 (stereo not drawn) | 9.86 |
| COc1ccc(CCNC(=O)c2ccccc2NS(=O)(=O)c2c(F)cccc2F)cc1 | 16.9 |
